#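 Cultured in 96-well plates, cells were exposed to test compound for 48 hours across five concentrations. GI50 marks 50% less growth. The concentration for full growth arrest is given as TGI.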
# System: NCI-H322M lung
# Assay: growth of human tumour cells (NCI), 48 h
Compound,GI50 [nM],TGI [nM]
O=C1C2=C(C(=O)c3c(O)cccc31)C(c1ccco1)c1sc(=O)[nH]c1S2 (stereo unspecified),1710,3130
N#Cc1ccc(/C=N/NC(=O)c2[nH]c3ccc(Br)cc3c2-c2ccccc2)s1,2150,30700
O=C(CCCCCCNC(=O)C(O)(O)C(F)(F)F)Nc1ncc(-c2ccc(Br)cc2)s1,1200,11400

# From PubChem BioAssay (NCI)
